Measurements taken from ChEMBL document CHEMBL4888484, “Replenishing the malaria drug discovery pipeline: Screening and hit evaluation of the MMV Hit Generation Library 1 (HGL1) against asexual blood stage Plasmodium falciparum ,using a nano luciferase reporter read-out” (2022).
The whole screen tested about 150,000 compounds, of which about 540 (0.36%) showed an effect of 50% or more. The list shows a part of the results.

What follows are compounds tested on Plasmodium falciparum (assay: Primary screen in NF54 nanoGlo assay, in single point, at 2uM, 72h; a lower Z score goes with more inhibition). Conditions: timepoint 72 hour.
Type: functional, Erythrocyte

Row | SMILES | % Inhibition [%] | Z score
1 | O=C(c1cnc(O)cn1)N1CCC([C@@H](O)CCc2ccccc2)CC1 | -15 | 2.16
2 | Cc1ccccc1NC(=O)c1nnc(CCCC(=O)N2CCCCC2)s1 | -1 | 0.2
3 | O=C(Nc1c[nH]nc1-c1nccs1)NC1CCOC2(CCOC2)C1 (stereo not drawn) | -5 | 0.77
4 | CC(C)N(CC1CCC1)C(=O)Cc1ccc(C(=O)O)cc1 | -11 | 1.39
5 | CCOc1ccc(CN[C@@H](C(=O)O)c2ccnn2C)cc1F | 1 | -0.2
6 | CCc1nc(CN(C)CN2C(=O)NC(C3CC3)(C3CC3)C2=O)cs1 | -8 | 1.49
7 | CC(C)(C)OC(=O)NC1(CNC(=O)C2CCN(C(=O)c3ccc(F)cc3F)CC2)CCCCCC1 | -15 | 1.6
8 | COc1ccc(-c2n[nH]cc2CNCCc2ccc(Cl)cc2)cc1F | 16 | -3.12
9 | C[C@H]1c2c(F)cccc2CCN1C(=O)c1occ2c1CCOC2 | 1 | -0.14
10 | CC1=[N+]([O-])C(C)(C)C(c2cccs2)=[N+]1[O-] | -5 | 0.78
11 | COc1ccc(OCc2cc(C(=O)N(C)[C@@H](C)c3nccs3)n[nH]2)c(Cl)c1 | 8 | -0.73
12 | CC[C@H]1C(=O)NCCN1Cc1cnc(-c2ccccc2)s1 | 0 | -0.01
13 | O=C(C1CCCC1)N1CC(N(Cc2ccccn2)C(=O)Nc2ccccc2)C1 | 3 | -0.59
14 | COc1ccc(Cc2nc3ccccc3n2CC(=O)N2CCC(C)CC2)cc1 | -1 | 0.11
15 | O=c1[nH]nc2n1CC[C@@H](NS(=O)(=O)c1ccc3c(c1)OCCO3)CC2 | -16 | 2.45
16 | Cc1cc(C)nc(N2CCN(c3nccs3)CC2)n1 | -14 | 1.41
17 | Cc1nn(C)cc1-c1cc(-c2cn(C)nc2C)n(Cc2ccc(Cl)cc2)n1 | 35 | -3.97
18 | Clc1cccc(CN2CCC[C@H](n3cncn3)C2)c1Cl | -10 | 1.44
19 | CC1(C)[C@@H]2Cc3nc4c(cc3[C@H]1C2)CCCC4 | 0 | 0
20 | O=C(O)c1cccc(NC(=O)c2cccc3cc[nH]c23)c1 | -18 | 2.53
21 | CN=C(NCC1(c2ccccc2)CC1)NC1CCCCC1 | 3 | -0.41
22 | Cc1cc(C)n(-c2ncc(NC(=O)c3ccc4c(c3)OCO4)cn2)n1 | -7 | 1.06
23 | O=C(C1CCCC1)N1CCN(CCO)CC1 | 5 | -0.78
24 | CNc1cc(-c2nc(CCCN3CCCC3)no2)ccn1 | -3 | 0.63
